Screen size: about 220,000 compounds; about 16,000 (7.3%) were called active. The inconclusive results got no clear call from the source; some entries with a clear call stand among them for comparison. Calls come from the whole dose curve; as a rule, active = well fitted inhibition curve with a large enough effect (not every such curve was filed as active); inconclusive = small, poorly fitted or top-dose-only effect, or another doubt; inactive = no such curve, though single readings can be large or run the other way. No potency is given beside an inconclusive call; the fits are too rough.
Target: Aldehyde dehydrogenase 1A1 (Homo sapiens) (UniProt P00352)
Test: qHTS Assay for Inhibitors of Aldehyde Dehydrogenase 1 (ALDH1A1);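 for activity, negative = inhibition: plate controls were no enzyme wells and a reference inhibitor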
Conditions: Purified ALDH1A1, NADH fluorescence, propionaldehyde substrate; series mostly up to 75.3 µM
Potency is the fitted concentration of half-maximal effect; tags give direction and shape of the fitted curve.

UniProt P00352, sequence (P00352 whole entry, looked up): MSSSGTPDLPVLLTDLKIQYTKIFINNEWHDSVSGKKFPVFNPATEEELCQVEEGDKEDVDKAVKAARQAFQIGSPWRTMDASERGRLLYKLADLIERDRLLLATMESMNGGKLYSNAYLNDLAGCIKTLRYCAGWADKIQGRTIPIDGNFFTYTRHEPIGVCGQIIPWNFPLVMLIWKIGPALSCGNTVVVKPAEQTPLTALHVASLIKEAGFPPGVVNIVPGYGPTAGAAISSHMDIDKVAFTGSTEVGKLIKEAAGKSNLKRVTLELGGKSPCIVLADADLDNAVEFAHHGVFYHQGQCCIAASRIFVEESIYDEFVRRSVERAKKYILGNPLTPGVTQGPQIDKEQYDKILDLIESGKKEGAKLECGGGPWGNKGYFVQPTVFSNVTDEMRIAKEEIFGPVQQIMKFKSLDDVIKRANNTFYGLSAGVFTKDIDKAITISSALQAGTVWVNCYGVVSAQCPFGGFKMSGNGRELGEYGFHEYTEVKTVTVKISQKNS

Compound	Potency	activity, negative = inhibition
COc1ccc(N/N=C(C)/C(=N/O)C(=O)Nc2ccccc2)cc1	active: 14.1 µM	–
O=C(NCc1nnc(SCC(=O)N2CCCC2)o1)c1c(F)cccc1Cl	inactive	–
CC(C)c1ccc2[nH]c3nc(SCC(=O)N4CCOCC4)nnc3c2c1	inconclusive [inhibitor, single point]	–
CCOc1ccc(NC(=O)CC(NCc2ccccn2)C(=O)O)cc1 (centres undefined)	inactive	–
O=C(CCc1ccccc1)NNC(=O)c1ccc(F)cc1	inconclusive [inhibitor, single point]	–
COc1ccc(C(CNC(=O)c2ccccc2SC)N(C)C)cc1 (centres undefined)	inactive	–
Cc1cc(=O)n(C)c(=O)n1CCCCCCN1CCCC1	inconclusive [inhibitor, single point]	–
COc1ccc(Cl)cc1NC(=O)NC(C)C(C)(C)C (centres undefined)	inactive	–
C=CCN=C(NC#N)SCc1ccccc1Cl	inconclusive [inhibitor, single point]	–
COc1ccc(-c2nn(C)c(=O)c3ccccc23)cc1NC(=O)Cn1nc(C)c2ccccc2c1=O	inconclusive [inhibitor, single point]	–
c1nc(N2CCNCC2)c2cc(-c3ccoc3)ccc2n1	inconclusive [inhibitor, single point]	–
Cc1ccc(N/C=C/C(=O)c2sc(-c3ccccc3)nc2C)cc1	active: 11.2 µM	–
Cc1ccc(C(C)C)c(OCCCN2CC(C)OC(C)C2)c1 (centres undefined)	inconclusive [inhibitor, partial curve]	–
O=C(O)c1cccnc1SC1CC(=O)N(c2cccc(C(F)(F)F)c2)C1=O (centres undefined)	active: 12.6 µM	–
CCOCCn1c(CCCO)nc2ccccc21	inconclusive [inhibitor, full curve, poor fit]	–
CCOc1ccccc1NC(=S)Nc1ccccc1F	inconclusive [inhibitor, single point]	–
Cc1ccc(-c2nn(-c3ccccc3)cc2C(=O)Nc2cccc(S(=O)(=O)N3CCOCC3)c2)cc1	inconclusive [inhibitor, full curve]	–
CC(C1CCCC(=O)C1)[N+](=O)[O-] (centres undefined)	inactive	–
CC(C)c1ccc(C2NC(=O)NC3=C2CCc2ccccc23)cc1 (centres undefined)	inconclusive [inhibitor, partial curve]	–
C=CCSC1=C(C#N)C(c2ccc(OCC)cc2)CC(=O)N1 (centres undefined)	inconclusive [inhibitor, single point]	–
CCOC(=O)N1CCN(C(=O)CCSc2ccc(C)cc2)CC1	inconclusive [inhibitor, single point]	–
O=C(COC(=O)Cc1ccsc1)NCc1ccc(Cl)cc1	inactive	–
CC(=O)Nc1ccc(S(=O)(=O)Nc2nc3ccccc3nc2Sc2nncn2C)cc1	inconclusive [inhibitor, partial curve, poor fit]	–
Cc1ccc(-n2c(-c3ccccc3)n[nH]c2=S)cc1	active: 31.6 µM	–
O=C(NCCCn1ccnc1)C(=O)c1c[nH]c2ccccc12	inactive	–
CCCCOc1c(Br)cc(/C=N/O)cc1OCC	inconclusive [inhibitor, single point]	–
COCCNC(=S)N/N=C(\C)c1cccc([N+](=O)[O-])c1	inactive	–

Compound	Potency	activity, negative = inhibition
Brc1c(CSc2nc3ccccc3o2)nc2ncccn12	inconclusive [inhibitor, partial curve]	–
O=C(CN1CCN(Cc2ccccc2)CC1)N1CCCc2c1c(=O)oc1ccc(O)cc21	inactive	–
CCc1nnc(NC(=O)CSc2nc3ccccc3s2)s1	inactive	–
Cc1nc(-c2ccc(NC(=O)/C=C\C(=O)O)cc2)cs1	inconclusive [inhibitor, single point]	–
CCOc1ccc(NS(=O)(=O)c2ccc(SC)cc2)cc1	active: 11.2 µM	–
Cc1cc(N2CCN(C3CCCC3)CC2)n2c(nc3ccccc32)c1C#N	inconclusive [inhibitor, partial curve]	–
Cn1cc(-c2nc3ccccc3[nH]2)c2ccccc21	inconclusive [inhibitor, partial curve]	–
O=C(O)CC(NC(=O)C12CC3CC(CC(C3)C1)C2)c1ccc(OC2CCCC2)cc1 (centres undefined)	inactive	–
Cc1ccc2c(CN3CCN(C(=O)c4ccco4)CC3)cc(=O)oc2c1C	active: 25.1 µM	–
CN1CCN(C(=O)c2ccc3ccccc3c2)CC1	inactive	–
C=CCN1C(=O)C(CC(=O)Nc2ccccc2)S/C1=N/c1nccs1 (centres undefined)	inconclusive [inhibitor, single point]	–
O=C(NNc1nc(=O)c2cccnc2s1)c1ccccc1O	inactive	–
c1ccc(-n2nnc(-c3cccnc3)n2)cc1	inactive	–
C1CCN=C(NC23CC4CC(CC(C4)C2)C3)CC1	inactive	–
CCOC(=O)c1sc(NC(=O)c2ccc(CC)s2)nc1C	inconclusive [inhibitor, partial curve]	–
O=C(N/N=C/c1ccccn1)c1cccc(S(=O)(=O)Nc2ccccc2Cl)c1	inactive	–
CCn1c(O)c(C=Nc2ccccc2)n(-c2ccccc2)c1=S	inconclusive [inhibitor, single point]	–
CN(C(=O)CSc1nc(-c2ccccc2)c(-c2ccccc2)o1)C1CCS(=O)(=O)C1 (centres undefined)	inconclusive [inhibitor, single point]	–
Cc1ccc(-c2cc(C(=O)NCCN3CCOCC3)no2)cc1	inconclusive [inhibitor, single point]	–
FC(F)(F)c1nc2ccccc2c2nc3ccccc3n12	inconclusive [inhibitor, single point]	–
CC(=O)c1ccc2cccc3c2c1N=CN3C	inactive	–
O=C1Nc2ccccc2/C1=N\N=C\c1ccc(O)c(O)c1	inconclusive [inhibitor, single point]	–
CCCOc1ccc(N2C(=O)CC(N3CCC(C(=O)OCC)CC3)C2=O)cc1 (centres undefined)	inconclusive [inhibitor, single point]	–
CCCCCn1c(CN2CCN(C(=O)OCC)CC2)nc2c1c(=O)[nH]c(=O)n2C	active: 11.2 µM	–
CC1Cc2ccccc2N1CC(=O)NC(c1ccccc1)c1ccccc1 (centres undefined)	inconclusive [inhibitor, full curve]	–
O=C(NC1CCCCCCC1)c1ccccc1O	inconclusive [inhibitor, single point]	–
COC(=O)c1ccccc1NC(=O)COc1ccc(S(=O)(=O)N2CCCC2)cc1C	inconclusive [inhibitor, single point]	–

Compound	Potency	activity, negative = inhibition
C=CCC1(c2ccccc2)Oc2ccc(C)cc2-c2nc3cc(Cl)c(Cl)cc3nc21 (centres undefined)	–	inactive: -0.888% [at 13.5 µM]
CCOC(=O)c1cc2c(=O)n3ccccc3nc2n(C(C)C)c1=NC(=O)c1c(-c2c(F)cccc2Cl)noc1C	inconclusive [inhibitor, partial curve]	–
Cc1cc2cc3c(cc2nc1SCc1ccccn1)OCCO3	inactive	–
Cc1ccc(S(=O)(=O)C2(C(=O)N3CCCC(C)C3)CC2)cc1 (centres undefined)	inactive	–
Cc1c(Cl)cccc1NC(=S)N1CCN(Cc2ccc3c(c2)OCO3)CC1	inactive	–
CCC1CCCCN1S(=O)(=O)c1ccc(C(=O)Nc2nnc(-c3cccs3)o2)cc1 (centres undefined)	inactive	–
CSc1oc(-c2ccco2)nc1S(=O)(=O)c1ccccc1	inconclusive [inhibitor, single point]	–
CCOC(=O)N1C=CC=C[C@@H]2[C@@H](N3C(=O)c4ccccc4C3=O)C(=O)N21	inactive	–
Cc1cccc(Nc2nc(N3CCCCC3)nc(N3CCCCC3)n2)c1	inactive	–
COc1ccc(Br)cc1CNC(=O)C1CCN(S(=O)(=O)N2CCCCC2)CC1	active: 12.6 µM	–
CC(Oc1ccc(O)cc1)(P(=O)(O)O)P(=O)(O)O	inactive	–
CCCCOc1nc2ccccc2nc1C(C#N)C(=O)NC1CCCCC1 (centres undefined)	inconclusive [inhibitor, single point]	–
O=C(COC(=O)c1ccc(Br)cc1)NCCN1C(=O)CSC1=O	inconclusive [inhibitor, single point]	–
O=C(c1ccccc1)c1ccc(OCCCN2CCCCC2)cc1	inconclusive [inhibitor, single point]	–
COC(=O)C1=C(CN2CCN(C)CC2)NC(=O)NC1c1cc(C)ccc1C (centres undefined)	inactive	–
COc1cc2cc(CN(Cc3cccs3)C(=S)Nc3ccccc3)c(=O)[nH]c2cc1OC	inconclusive [inhibitor, single point]	–
CCNC(=S)N/N=C(\C)c1ccc(N2CCOCC2)cc1	inconclusive [inhibitor, partial curve]	–
N#CC1=C(SCC(=O)c2ccc(Br)cc2)NC2=C(C(=O)CCC2)C1c1ccco1 (centres undefined)	inconclusive [inhibitor, single point]	–
CCc1nnc(NC(=O)c2nc3nccc(C)n3n2)s1	inconclusive [inhibitor, single point]	–
CC1(C)Oc2nc3ccccc3n2/C1=C\C#N	inactive	–
CNC(=S)N(Cc1ccc2c(c1)OCO2)C1CC(=O)N(c2ccccc2)C1=O (centres undefined)	inactive	–
COc1ccc(OCCCC(=O)NCCc2ccc(OC)c(OC)c2)cc1	inconclusive [inhibitor, single point]	–
Cc1nnc(SCC(=O)NCc2ccc3c(c2)OCO3)[nH]c1=O	inactive	–
Cc1ccc2c(c1)CCCN2C(=O)c1ccoc1C	inconclusive [inhibitor, single point]	–
CC1(C)Cc2c(sc3c2C(=O)N(c2ccccc2)C2=NCCN23)CS1	inconclusive [inhibitor, single point]	–
